± gives the uncertainty stated by the source. The sequences are guide strands of siRNAs; only the seed at positions 2 to 7 varies.
Columns and labels:
M565 = assay: cell viability relative to lipid-only control; higher = less toxic; conditions: concentration: 10 nM; 96 h; Mus musculus
HeyA8 = assay: as above; conditions: concentration: 10 nM; 96 h; Homo sapiens
H460 = assay: as above; conditions: concentration: 10 nM; 96 h; Homo sapiens
3LL = assay: cell viability relative to siNT1 control; HeyA8 human ovarian and H460 human lung cancer; M565 mouse liver and 3LL mouse lung cancer; siNT1 is a non-toxic control siRNA; higher = less toxic; conditions: concentration: 10 nM; 96 h; Mus musculus
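For cell viability relative to lipid-only control in this document: reverse lipid transfection in 384-well plates, in triplicate, of duplexes on a non-toxic 19mer backbone with passenger strand 2′-O-methylated at positions 1 and 2, luminescence viability read-out.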
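For cell viability relative to siNT1 control in this document: Luminescence-based viability of cells reverse transfected in 384-well plates with lipid-complexed siRNAs built on a non-toxic 19mer backbone whose passenger strand carries 2′-O-methyl groups at positions 1 and 2, triplicates.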

Sequence | cell viability (M565) [%] | cell viability (HeyA8) [%] | cell viability (H460) [%] | cell viability (3LL) [%]
UUAGAGAACAUGUAAACCAAA | 103 ± 8 | 85.9 ± 13 | 71.3 ± 7.8 | 55.6 ± 3
UCUCCAAACAUGUAAACCAAA | 65.4 ± 13 | 85.3 ± 8.5 | 56.9 ± 6.5 | 91.8 ± 12
UACUAGGACAUGUAAACCAAA | 43.9 ± 5.8 | 25 ± 1.6 | 49.7 ± 2.5 | 95.5 ± 7
UUAUCAGACAUGUAAACCAAA | 66.4 ± 14 | 73 ± 7.7 | 70 ± 1.5 | 82.9 ± 9.6
UAUUGGAACAUGUAAACCAAA | 107 ± 27 | 21.2 ± 5.6 | 24.7 ± 4.1 | 99.5 ± 16
UGAAUCCACAUGUAAACCAAA | 13 ± 3.6 | 39.5 ± 1.4 | 42.3 ± 6.5 | 18.6 ± 7.2
UCCCCCCACAUGUAAACCAAA | 23.2 ± 4.1 | 22.5 ± 3 | 20.3 ± 3.8 | 29.5 ± 7.6
UACAAAAACAUGUAAACCAAA | 75.3 ± 14 | 84.2 ± 3.2 | 84.7 ± 17 | 91.7 ± 9.8
UGCACCUACAUGUAAACCAAA | 48.8 ± 1.9 | 64.4 ± 4.2 | 71.7 ± 12 | 59 ± 3
UAAUUAUACAUGUAAACCAAA | 82.2 ± 13 | 50.4 ± 5.9 | 55.7 ± 5.8 | 105 ± 16
UUUAUGUACAUGUAAACCAAA | 50 ± 20 | 80.4 ± 4.9 | 61 ± 4.2 | 58.6 ± 6.7
UCAGGAGACAUGUAAACCAAA | 32.1 ± 6.2 | 56.2 ± 4.2 | 54.5 ± 7.7 | 101 ± 17
UCAGUGGACAUGUAAACCAAA | 31.8 ± 4.5 | 29.3 ± 5 | 34.8 ± 4.2 | 36.9 ± 4.5
UUCAUCAACAUGUAAACCAAA | 56.6 ± 15 | 66.5 ± 8.1 | 60 ± 4.1 | 64 ± 15
UUCUUAAACAUGUAAACCAAA | 102 ± 19 | 96.3 ± 7.6 | 61.8 ± 11 | 97.6 ± 7.9
UGUUGGAACAUGUAAACCAAA | 18.4 ± 2 | 21.1 ± 7.5 | 41.6 ± 4.7 | 92.5 ± 3.6
UCUCAUAACAUGUAAACCAAA | 90.1 ± 9.6 | 87.7 ± 10 | 25.5 ± 2.2 | 103 ± 14
UAACCUCACAUGUAAACCAAA | 41.7 ± 2.1 | 50.9 ± 2.6 | 52.8 ± 3.2 | 24.8 ± 5.5
UAAUCGCACAUGUAAACCAAA | 82.1 ± 18 | 67.8 ± 3.5 | 60.2 ± 1.7 | 57.8 ± 3.4
UCCACUGACAUGUAAACCAAA | 68.6 ± 17 | 92.7 ± 5.1 | 70.1 ± 12 | 108 ± 27

Sequence | cell viability (M565) [%] | cell viability (HeyA8) [%] | cell viability (H460) [%] | cell viability (3LL) [%]
UCGUCACACAUGUAAACCAAA | 39.7 ± 9.8 | 57.1 ± 5.7 | 65.9 ± 7.3 | 70 ± 10
UGCACAGACAUGUAAACCAAA | 52.9 ± 14 | 69.7 ± 5.1 | 52.9 ± 6.8 | 51.8 ± 12
UUCUGCAACAUGUAAACCAAA | 57.7 ± 5.4 | 87 ± 5.8 | 52.9 ± 6.8 | 30.1 ± 7.7
UAAGUCUACAUGUAAACCAAA | 36 ± 4.5 | 56.7 ± 5.3 | 75.2 ± 15 | 59.3 ± 10
UGAACCGACAUGUAAACCAAA | 40.4 ± 2.2 | 85.6 ± 1 | 86.4 ± 16 | 93.7 ± 14
UCGUCUCACAUGUAAACCAAA | 23.9 ± 2.2 | 29.7 ± 1.9 | 66.6 ± 4.2 | 42.3 ± 4.8
UUCUCUGACAUGUAAACCAAA | 73.9 ± 6.8 | 93 ± 12 | 69.2 ± 9.3 | 84.8 ± 2.4
UAGACUUACAUGUAAACCAAA | 69.6 ± 10 | 76 ± 3.3 | 68.8 ± 9.4 | 80 ± 4
UCAGUACACAUGUAAACCAAA | 58.6 ± 8 | 38.4 ± 2.8 | 38 ± 6.1 | 54.8 ± 8.7
UUCCGCGACAUGUAAACCAAA | 84 ± 8 | 93.4 ± 10 | 83.9 ± 13 | 93.2 ± 9.1
UCAAGAUACAUGUAAACCAAA | 35.7 ± 6.4 | 71.5 ± 9.5 | 49.5 ± 14 | 58 ± 8.7
UGCCGGUACAUGUAAACCAAA | 47.8 ± 7.9 | 7.45 ± 0.78 | 22.2 ± 1.6 | 77.8 ± 6.1
UAGCAGUACAUGUAAACCAAA | 28.7 ± 3.5 | 38.1 ± 2.6 | 33.9 ± 2.4 | 36.5 ± 2.2
UUGGAACACAUGUAAACCAAA | 31.9 ± 6.5 | 85.4 ± 5.6 | 77.9 ± 8.1 | 71.1 ± 6.7
UGCAAAUACAUGUAAACCAAA | 77.5 ± 8.8 | 45.6 ± 5.4 | 60.9 ± 2.5 | 74.7 ± 3.9
UGGAACCACAUGUAAACCAAA | 9.49 ± 2.4 | 32 ± 1.6 | 44.2 ± 6.1 | 50.4 ± 4.3
UAGCACAACAUGUAAACCAAA | 23.7 ± 3.3 | 83.8 ± 7.7 | 66.8 ± 3.3 | 68.3 ± 0.98
UGAGUAUACAUGUAAACCAAA | 31.7 ± 11 | 24 ± 5.3 | 64.9 ± 9.2 | 51.7 ± 6.6
UCUAUUAACAUGUAAACCAAA | 69.5 ± 18 | 78.2 ± 1.6 | 69 ± 11 | 87.7 ± 10
UAUUACCACAUGUAAACCAAA | 56.8 ± 7.8 | 58.3 ± 5.8 | 45.1 ± 1.6 | 58.5 ± 14

Sequence | cell viability (M565) [%] | cell viability (HeyA8) [%] | cell viability (H460) [%] | cell viability (3LL) [%]
UUUUGAGACAUGUAAACCAAA | 103 ± 20 | 99.8 ± 3.3 | 100 ± 14 | 102 ± 5.7
UUUCAAGACAUGUAAACCAAA | 67.4 ± 2.2 | 93.6 ± 2.8 | 51.9 ± 5.7 | 93.2 ± 3.5
UCGCGUCACAUGUAAACCAAA | 34.4 ± 0.62 | 61.7 ± 2.9 | 56.8 ± 12 | 81.3 ± 13
UGCUUCAACAUGUAAACCAAA | 55.4 ± 7.1 | 27 ± 3.3 | 80.7 ± 22 | 72.6 ± 7.2
UCCAGGCACAUGUAAACCAAA | 19 ± 4.3 | 22.5 ± 2.8 | 25.7 ± 3.5 | 54.3 ± 12
UUGGGAAACAUGUAAACCAAA | 68.4 ± 3.1 | 67 ± 4.1 | 61 ± 6.3 | 63 ± 8.7
UUCCUCUACAUGUAAACCAAA | 44.5 ± 7.6 | 60.6 ± 4.5 | 53.2 ± 4.9 | 67.6 ± 11
UAUUUUCACAUGUAAACCAAA | 65.3 ± 7.7 | 41.5 ± 2.7 | 47.9 ± 2.3 | 32.2 ± 15
UUUCGAUACAUGUAAACCAAA | 82.1 ± 11 | 101 ± 4.7 | 80.6 ± 21 | 107 ± 7.4
UGCAGGGACAUGUAAACCAAA | 33 ± 1.9 | 2.38 ± 0.25 | 23.9 ± 2.3 | 13.1 ± 4.4
UGCCAAUACAUGUAAACCAAA | 28.3 ± 10 | 81.8 ± 8.2 | 58 ± 3.1 | 83.9 ± 11
UAACUAUACAUGUAAACCAAA | 78.8 ± 8.2 | 94.4 ± 13 | 68 ± 5.3 | 93.9 ± 14
UUUUGAUACAUGUAAACCAAA | 103 ± 16 | 75.6 ± 0.79 | 63.9 ± 7.5 | 89.8 ± 2.8
UUUUUUCACAUGUAAACCAAA | 126 ± 14 | 69.7 ± 8.8 | 69.1 ± 8.1 | 93.7 ± 4.9
UAAUACAACAUGUAAACCAAA | 102 ± 19 | 90.4 ± 9 | 101 ± 8.5 | 121 ± 12
UUGACUAACAUGUAAACCAAA | 88.5 ± 11 | 95.9 ± 6.7 | 71.9 ± 20 | 95 ± 14
UAGAAAAACAUGUAAACCAAA | 74.8 ± 6.5 | 84.6 ± 3.7 | 68.6 ± 6.1 | 83.8 ± 12
UCUGGACACAUGUAAACCAAA | 8.06 ± 1.3 | 61.6 ± 5.2 | 41.4 ± 3.4 | 42 ± 5.8
UCUAAAUACAUGUAAACCAAA | 74.7 ± 23 | 94.9 ± 16 | 62.3 ± 8.8 | 100 ± 16

From the supplement of paper PMC6206098
